Out of some 3,200 compounds screened, about 75 (2%) showed an effect of 50% or more. The list shows a part of the results.
tested on: T1, S. aureus MSSA476; parameters: species or system S. aureus MSSA476 (TSB) or V. cholerae SAD30 (LB); 384-well bacterial growth screen at 25 uM, OD600 relative to DMSO control; conditions: relative growth, OD600, TSB; 25 µM; inhibitor
T1 construct: MSSA476

Point of comparison: `Cc1ccccc1NC(=O)C(C#N)=Cc1cc2c(cc1[N+](=O)[O-])OCO2` [9-P11, 2-cyano-N-(2-methylphenyl)-3-(6-nitro-1,3-dioxaindan-5-yl)prop-2-enamide], “% of control remaining” value 108.165%. Against it:
- O=C(CCl)N(Cc1ccsc1)C1CC1 [5-N18, 2-chloro-N-cyclopropyl-N-[(thiophen-3-yl)methyl]acetamide] — higher, 111.84%
- C=CC(=O)NCc1ccc(C(=O)N2CCC(C(C)(C)O)CC2)cc1 [2-J20, N-({4-[4-(2-hydroxypropan-2-yl)piperidine-1-carbonyl]phenyl}methyl)prop-2-enamide] — higher, 115.231%
- CC(Cl)C(=O)N1CCn2c(C#N)ccc2C1C (stereo not drawn) [6-F22, 2-(2-chloropropanoyl)-1-methyl-1H,2H,3H,4H-pyrrolo[1,2-a]pyrazine-6-carbonitrile] — lower, 99.0244%
- CC(C)c1nc(C=C(C#N)C(=O)NC2CCCCC2)c2ccccn12 [9-B15, 2-cyano-N-cyclohexyl-3-[3-(propan-2-yl)imidazo[1,5-a]pyridin-1-yl]prop-2-enamide] — lower, 86.5918%
- C=CC(=O)N(CC)CC(=O)N1CCc2c(ncn2CC)C1 [2-H08, N-ethyl-N-(2-{1-ethyl-1H,4H,5H,6H,7H-imidazo[4,5-c]pyridin-5-yl}-2-oxoethyl)prop-2-enamide] — lower, 106.876%
- CC(C)OC(=O)c1c(NC(=O)CCl)sc2c1CCCC2 [4-E21, propan-2-yl 2-(2-chloroacetamido)-4,5,6,7-tetrahydro-1-benzothiophene-3-carboxylate] — higher, 152.072%
- Cc1nn(-c2ccccc2)c(Cl)c1C=C(C#N)C(=O)NC(C)C [9-J17, 3-(5-chloro-3-methyl-1-phenyl-1H-pyrazol-4-yl)-2-cyano-N-(propan-2-yl)prop-2-enamide] — lower, 77.9026%
- N#CC(=Cc1ccc(OC(F)F)cc1)C(=O)N1CCCc2ccccc21 [8-E03, 3-[4-(difluoromethoxy)phenyl]-2-(1,2,3,4-tetrahydroquinoline-1-carbonyl)prop-2-enenitrile] — higher, 164.315%
- CCOc1cc(C=C(C#N)C(=O)Nc2nccs2)cc(Cl)c1O [9-K22, 3-(3-chloro-5-ethoxy-4-hydroxyphenyl)-2-cyano-N-(1,3-thiazol-2-yl)prop-2-enamide] — lower, 54.2322%
- COc1ccc(NC(=O)C(C#N)=Cc2cccc(O)c2)cc1Cl [9-C08, N-(3-chloro-4-methoxyphenyl)-2-cyano-3-(3-hydroxyphenyl)prop-2-enamide] — lower, 97.3783%
- C=CC(=O)Nc1cccc(S(=O)(=O)C2CCOCC2)c1 [3-M08, N-[3-(oxane-4-sulfonyl)phenyl]prop-2-enamide] — lower, 105.529%
- CC(NC(=O)CCl)c1cn(-c2ccccc2)nn1 (stereo not drawn) [5-O06, 2-chloro-N-[1-(1-phenyl-1H-1,2,3-triazol-4-yl)ethyl]acetamide] — lower, 91.0747%
- N#CC(=Cc1ccc(-c2ccccc2)cc1)C(=O)NCc1ccccc1 [8-C06, N-benzyl-3-{[1,1'-biphenyl]-4-yl}-2-cyanoprop-2-enamide] — higher, 141.743%
- Cc1cc(CN(C(=O)CCl)c2ccc(F)cc2)nn1C [5-E14, 2-chloro-N-[(1,5-dimethyl-1H-pyrazol-3-yl)methyl]-N-(4-fluorophenyl)acetamide] — lower, 100.182%
- CC(Cl)C(=O)NCC1CCCN(c2nccn3cnnc23)C1 (stereo not drawn) [7-M05, 2-chloro-N-[(1-{[1,2,4]triazolo[4,3-a]pyrazin-8-yl}piperidin-3-yl)methyl]propanamide] — higher, 116.484%
- COc1ccc(S(=O)(=O)N2CCOCC2)cc1NC(=O)CCl [4-O04, 2-chloro-N-[2-methoxy-5-(morpholine-4-sulfonyl)phenyl]acetamide] — lower, 102.906%
- C=CC(=O)N1CCN(Cc2ncon2)CC1 [3-I16, 1-{4-[(1,2,4-oxadiazol-3-yl)methyl]piperazin-1-yl}prop-2-en-1-one] — lower, 96.8219%
- C=CC(=O)Nc1cn(CC(F)(F)F)nc1C [3-D06, N-[3-methyl-1-(2,2,2-trifluoroethyl)-1H-pyrazol-4-yl]prop-2-enamide] — lower, 91.5977%
- CC(Cl)C(=O)N(C)C(C)c1cccc(NC(=O)c2ccccc2)c1 (stereo not drawn) [6-J14, N-{3-[1-(2-chloro-N-methylpropanamido)ethyl]phenyl}benzamide] — lower, 94.5854%
- C=CC(=O)N(C)CC(=O)N1CCc2cc(OC)c(OC)cc2C1C (stereo not drawn) [3-C04, N-[2-(6,7-dimethoxy-1-methyl-1,2,3,4-tetrahydroisoquinolin-2-yl)-2-oxoethyl]-N-methylprop-2-enamide] — lower, 96.8219%
- C=CC(=O)N1CCCCC1CNC(C)=O (stereo not drawn) [2-M07, N-{[1-(prop-2-enoyl)piperidin-2-yl]methyl}acetamide] — lower, 100.261%
- CN(C)CCN1C(=O)C=CC1=O [10-G11, 1-[2-(dimethylamino)ethyl]-2,5-dihydro-1H-pyrrole-2,5-dione] — lower, 95%
- C=CC(=O)N1CCC(C(=O)Nc2nncn2C)(c2ccccc2)CC1 [3-O12, N-(4-methyl-4H-1,2,4-triazol-3-yl)-4-phenyl-1-(prop-2-enoyl)piperidine-4-carboxamide] — lower, 89.5081%
- O=C(CCl)NC1CCN(C(=O)CCc2ccccc2)CC1 [6-N08, 2-chloro-N-[1-(3-phenylpropanoyl)piperidin-4-yl]acetamide] — higher, 108.585%
- N#CC(=Cc1ccccc1OC(F)F)C(=O)Nc1nccs1 [9-K19, 2-cyano-3-[2-(difluoromethoxy)phenyl]-N-(1,3-thiazol-2-yl)prop-2-enamide] — lower, 96.779%
- CC(NC(=O)CCl)C(=O)N1CCS(=O)(=O)CC1 (stereo not drawn) [5-K14, 2-chloro-N-[1-(1,1-dioxo-1lambda6-thiomorpholin-4-yl)-1-oxopropan-2-yl]acetamide] — higher, 123.133%
- N#CC(=Cc1ccc([N+](=O)[O-])o1)C(=O)NCc1ccco1 [8-I17, 2-cyano-N-[(furan-2-yl)methyl]-3-(5-nitrofuran-2-yl)prop-2-enamide] — lower, -0.6639%
- N#CC(=Cc1cccc([N+](=O)[O-])c1)C(=O)NCc1ccccc1 [8-B22, N-benzyl-2-cyano-3-(3-nitrophenyl)prop-2-enamide] — lower, 83.3195%
- C=CCNC(=O)C(C#N)=Cc1cc(F)ccc1F [9-H07, 2-cyano-3-(2,5-difluorophenyl)-N-(prop-2-en-1-yl)prop-2-enamide] — lower, 106.367%
- COc1cc(C(C)NC(=O)CCl)sn1 (stereo not drawn) [7-H22, 2-chloro-N-[1-(3-methoxy-1,2-thiazol-5-yl)ethyl]acetamide] — lower, 100.785%
- CC(Cl)C(=O)NC1CCN(Cc2cscn2)CC1 (stereo not drawn) [7-D07, 2-chloro-N-{1-[(1,3-thiazol-4-yl)methyl]piperidin-4-yl}propanamide] — lower, 107.378%
- CC(Cl)C(=O)NC1(C(=O)N(C)C)CC(F)(F)C1 (stereo not drawn) [7-K20, 1-(2-chloropropanamido)-3,3-difluoro-N,N-dimethylcyclobutane-1-carboxamide] — lower, 98.5871%
- CCC1SC(=C(C#N)C(N)=O)N(c2ccc(C)cc2)C1=O (stereo not drawn) [8-J15, 2-cyano-2-[5-ethyl-3-(4-methylphenyl)-4-oxo-1,3-thiazolidin-2-ylidene]acetamide] — higher, 108.88%
- COc1ccc([C@H]2C[C@H](NC(=O)C(C)Cl)C2)cc1F (stereo partly drawn) [6-F17, 2-chloro-N-[(1r,3r)-3-(3-fluoro-4-methoxyphenyl)cyclobutyl]propanamide] — lower, 93.9024%
- Cc1cc(C=C(C#N)C(=O)Nc2ccccc2)c(C)n1C1CC1 [8-E14, 2-cyano-3-(1-cyclopropyl-2,5-dimethyl-1H-pyrrol-3-yl)-N-phenylprop-2-enamide] — higher, 129.793%
- CC1(C)Cc2cc(C=C(C#N)C(=O)Nc3ccccc3F)ccc2O1 [8-G20, 2-cyano-3-(2,2-dimethyl-2,3-dihydro-1-benzofuran-5-yl)-N-(2-fluorophenyl)prop-2-enamide] — lower, 91.6183%
- N#CC(=Cc1cccnc1)C(=O)NCc1ccccc1 [9-I14, N-benzyl-2-cyano-3-(pyridin-3-yl)prop-2-enamide] — higher, 112.959%
- Cc1cc(C)c(CCNC(=O)CCl)c(C)c1 [6-K06, 2-chloro-N-[2-(2,4,6-trimethylphenyl)ethyl]acetamide] — lower, 77.1707%
- CN(C(=O)CCl)c1c(N)n(Cc2ccccc2)c(=O)[nH]c1=O [4-E06, N-(6-amino-1-benzyl-2,4-dioxo-1,2,3,4-tetrahydropyrimidin-5-yl)-2-chloro-N-methylacetamide] — lower, 94.9023%
- C=CC(=O)N(Cc1cc(F)cc(Cl)c1)C(C)C1CCOCC1 (stereo not drawn) [1-F13, N-[(3-chloro-5-fluorophenyl)methyl]-N-[1-(oxan-4-yl)ethyl]prop-2-enamide] — higher, 112.879%
- Cc1c(C#N)c(NC(=O)CCl)n(Cc2ccc(F)cc2)c1C [4-O21, 2-chloro-N-{3-cyano-1-[(4-fluorophenyl)methyl]-4,5-dimethyl-1H-pyrrol-2-yl}acetamide] — higher, 115.484%

Reference: article PMC11995724, “Antibiotic target discovery by integrated phenotypic and activity-based profiling of electrophilic fragments” (Cell chemical biology, 2025)
